Source: the supplement of paper PMC11417369
± gives the standard deviation of the averaged measurements. The list shows a part of the results.

Tested on: PfAP2-EXP AP2 domain (GST-tagged)
Test: gcPBM binding intensity (ln(normalized median fluorescence intensity)); higher = stronger DNA binding
How it was run: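 Each value is the highest Masliner-normalised natural-log median intensity across replicate spots of either orientation of a probe. The probes were primer-extended double-stranded 36-bp intergenic genomic sequences on an Agilent 4 × 180k array, alongside negative controls, exposed for 1 h to GST-tagged P. falciparum DNA-binding domains expressed in E. coli. Bound protein was picked up with Alexa488 anti-GST antibody and scanned at 488 nm.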

Sequence	gcPBM binding intensity (ln)
AAAAAAAAAAAAACAACACACAATGTTTTATTTTAC [CACACA_site1613]	8.31 ± 0.32
CATATAAGAATCTTCTGTACTTATAAGAAAAGACAT [XGTACX_site8135]	8.61 ± 0.3
ATATCTATAATAAACACACAAATAGATATAACATAT [CACACA_site7702]	8.87 ± 0.41
AAAAAAAAATTAAAAACACACATATATATATATATA [CACACA_site1580]	10.2 ± 0.39
AAAATTTAATATGAATGTACATAAAAAAAAAAAAAA [XGTACX_site6719]	8.54 ± 0.66
TAAGTATATTTCTGCACACAAAAAAAAAAACCAAAA [CACACA_site4056]	8.46 ± 0.43
TATAAATAAAGACTTTTTTCTAACTTTTTTTTGTAT [CACACA_negctrl_site1015]	8.43 ± 0.49
TATATATATATATATGTGCACATTTATTGCCTTTGC	10.1 ± 0.52
AATTTGAATATTTGATGTACAAAGTTTTTTAATGTT [XGTACX_site3249]	8.24 ± 0.25
TACCCACTAAAATACACACACACACCCACATATATA [CACACA_site6141]	8.74 ± 0.63
TCTTACACTAATAAATGTACATACAAAAAATCTATT [XGTACX_site1379]	8.52 ± 0.35
ATAAATATAACATATTGTACCCTTAAAAAGGAACAA [XGTACX_site352]	8.19 ± 0.11
AAATGTATAATTTTTTAATACACTTATTTAAAATAA [CACACA_negctrl_site797]	8.05 ± 0.31
GAGAGGATAGTTCACAGTACCCAGTAACTCTACGGA [XGTACX_site4876]	8.56 ± 0.49
GTACCAACAGCACTACTTCTCGCCATTTTCTTGTAG [XGTACX_negctrl_site97]	9.15 ± 0.42
CTCAAATAACTTTTTACACACATTATTTGAAATAAG [CACACA_site6722]	8.53 ± 0.41
CAGAATACATACATTACACACAAATTTAAGTATATA [CACACA_site1781]	8.31 ± 0.51
ATATGAATGATCGTACGTACTTACATATTTATAAAG [XGTACX_site8041]	8.6 ± 0.41
TATGAGAACAAACATTGTACAATAAAAAGTAGATAT [XGTACX_site920]	9.34 ± 0.33

Sequence	gcPBM binding intensity (ln)
ACAAATAAAAAAATTACACACATATAAAATATAGAT [CACACA_site6756]	8.43 ± 0.41
AATACATGAACTTAAAGTACTAAAAAAAAAATAATA [XGTACX_site1956]	8.69 ± 0.38
AGGAAAATAATTAAAGCATGCTCATTATGAAATATA [TGCATGCA_site855]	8.72 ± 0.42
AACCCTTTTGATTTTTCTTTTTTTTTTTTTTTAAAT [CACACA_negctrl_site1667]	8.32 ± 0.59
CATATAAGACAAAAGGTGCAATTTTAATGCTTTTAT [GTGCAC_site9432]	8.56 ± 0.24
TAGTAAAATGGAACACGTACATATATCTATGTATAA [XGTACX_site6103]	8.62 ± 0.43
ACAGTTTGTCTGAGTAGTACATAAATACTTGAAAGG [XGTACX_site7792]	8.62 ± 0.31
AGAAGGATATTATGAAGTACACATATTGTATATGGT [XGTACX_site7503]	8.47 ± 0.35
CCATATATAATGACATGTACTCAAAAAAAAAAAAAA [XGTACX_site685]	8.41 ± 0.44
TTTCAAGGATTTAATTTATGGAAACCTTCTTCATTT [GTGCAC_negctrl_site504]	8.35 ± 0.42
TAATTCAAACGTGTATGTATATTACTCGAAGAAATA [CACACA_negctrl_site1779]	8.29 ± 0.36
ATACATATATATATATGTACATATATTTATATTTAT [XGTACX_site3155]	8.39 ± 0.36
TTTCTCTTTTTTTGGGGTACAACCAATCCTATAATA [XGTACX_site297]	8.82 ± 0.43
TTTTTAAAAAAAAATAGAGAGTCAAAGTATGTGGCG [CACACA_negctrl_site194]	8.63 ± 0.18
TAAAAAAAGAGATATTGTACACAAAAAAATTTTACT [XGTACX_site1342]	8.62 ± 0.43
AAGTTCAAAATAAATGGTACAGAAGTATATATATCA [XGTACX_site174]	8.67 ± 0.47
TAGAAAAAAAAATACATACACACAATATATTTATTT [CACACA_site3123]	8.23 ± 0.37
AAAATCTAGGTATTTATACACACTAATATAATATAC [CACACA_site8108]	8.47 ± 0.36
TATATATTTGTGAAAATATTAAAATAAATAAATAAA [CACACA_negctrl_site295]	8.37 ± 0.36

Sequence	gcPBM binding intensity (ln)
ATATATATATATATATGTACATAATTAATAATTAGA [XGTACX_site5672]	10.3 ± 0.25
AAAAATCGATACAAGCGTACAAAATAAAATAAAAAT [XGTACX_site5546]	8.86 ± 0.49
ACCAATAATATACATACACACATAAAGGTTTATATA [CACACA_site315]	8.46 ± 0.24
TTACACATATTATATATATATAAAAAAAAAAAATAT [CACACA_negctrl_site1684]	8.46 ± 0.36
TAATATCATTTAGACACACACTCTTACAATATGTAA [CACACA_site5434]	8.34 ± 0.39
TCTATTAACTGATGTGCATGTTATAACCTAGAAGTA [TGCATGCA_site359]	8.63 ± 0.38
AGTTCGAATATATAAAGTACATAATTATATATTTGC [XGTACX_site2604]	8.54 ± 0.42
TGGATTCGTATATGTAGTACTATTTATATGTGATTT [XGTACX_site1581]	8.48 ± 0.4
TAAATTGAGTATATTACACACATATAAATATATTAT [CACACA_site4027]	8.35 ± 0.59
TCTTATCCTACTTTTATTTTTACTTTTTTTTCTTAT [CACACA_negctrl_site111]	8.88 ± 0.31
TATATATATATATGTATATATGTATATCTATATTTA [CACACA_negctrl_site131]	10 ± 0.19
AATATATACCAACATAAATATATATATATATATATA [TGCATGCA_negctrl_site334]	10.2 ± 0.49
TAATAAATATATAATTGTACTTAAAAGAATATAAAA [XGTACX_site2928]	8.32 ± 0.38
AAGTGTATATAAAAATGTACATATTTCGATTTAAAT [XGTACX_site4161]	8.72 ± 0.35
TTAAGATAGCAAATATGTACACATTTGTAAAATAAA [XGTACX_site4837]	8.71 ± 0.35
TGTACATAAATCTAATTATTATATGTGTATATATAT [CACACA_negctrl_site1582]	8.55 ± 0.014
AGTACAGACATAGACACACACACACCCATAAAAAAA [CACACA_site1515]	8.64 ± 0.38
TCACATATTATCTTTACACACTATATATAAGTTTTA [CACACA_site2790]	8.61 ± 0.34
